In a collection of fitness landscapes (doi:10.1016/j.celrep.2020.107928):
Whole data set: some 81,000 sequences, median “one-hybrid fitness for binding parS DNA” near -0.17, cut for the highest 2% near 0.51. The list shows a part of the results.

B1: Caulobacter ParB omega fusion; a variant is named by its letters at X, in order, B8GW30 (parent)
chain: MESVVVGEPGMSEGRRGLGRGLSALLGEVDAAPAQAPGEQLGGSREAPIEILQRNPDQPRRTFREEDLEDLSNSIREKGVLQPILVRPSPDTAGEYQIVAGERAWRAAQRAGLKTVPIMVRELDDLAVLEIGIIENVQRADLNVLEEALSYKVLMEKFERTQENIAQTIGKSXSHVANXMRLLXLPDEVQSYLVSGELTAXHARAIAAAADPVALAKQIIEGGLSVRETEALARKAPNLSAGKSKGGRPPRVKDTDTQALESDLSSVLGLDVSIDHRGSTGTLTITYATLEQLDDLCNRLTRGI

Variants of: B1
Experiment: one-hybrid fitness for binding parS DNA (scaled: cognate 1, non-cognate 0); higher = stronger binding
Details: with parS DNA site
Method in brief: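 Selection: bacterial one-hybrid in E. coli USO, HIS3 reporter with the site 19 bp from the promoter, 48 hours at 37°C on M9-minus-histidine plus 0.1 mM IPTG and 5 mM 3-AT. Libraries were Caulobacter ParB with four randomised specificity codons, sequenced on Illumina before and after selection. Fitness is the rescaled log change in variant-to-wild-type read ratio, anchored to the cognate and non-cognate sites.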

one-hybrid fitness for binding parS DNA, 0.252:
DVGK

one-hybrid fitness for binding parS DNA, 0.213:
RIAF

one-hybrid fitness for binding parS DNA, 0.822:
RTPS

one-hybrid fitness for binding parS DNA, 1.01:
RISG
RSFS

one-hybrid fitness for binding parS DNA, 0.989:
RTDS

one-hybrid fitness for binding parS DNA, 0.25:
HRAG

one-hybrid fitness for binding parS DNA, ≤ 0.2:
TYHV
MHCE
KALM
VTCC
HDQN
NGQS
LMIA
QNAT
YVAC
LLAL
DFAR
YVMC
ISMC
HQVR
DWRR
TPYW
ATDY
TLNW
FHRY
PCSN
AAKG
NFVC
VLTK
GKQS
MVPS
GYKR
GNSS
GSGV
CSQT
HDIR
NPSE
FYPD
FFHS
TSYN
RSSI
IWRC
IHSF
PGKS
CSSP
LAYV
SSDR
DSVV
LLWY
MSNV
PLYC
MFMR
AERE
LIGG
INES
RDKE
VAPK
REMD
QKHH
EVVM
HKGT
TDYC
SMVV
WNRR
HLKA
QFQG
ISRV
MAVR
HMSL
PRSK
RTHE
VPDR
PLLS
NFDS
EGWS
LEHT
DSYA
WNDS
QEHM
KSNS
QLLY
DIGF
YTMG
VAGH
QPNF
HTTF
DVAR
QRCV
TCCG
RVPD
GTEN
DVGT
IRMC
YDFT
QMVT
TKCS
ADTN
PTCT
QPWV
QSGW
PYGP
VNLR
TQNP
FVTP
TRFN
TCEE
WPCS
CSIL
KLCP
QAFG
LWGT
AASE
HYPN
QMVY
NTLF
STHV
MQRC
AELS
EMFS
TWDS
IFSG
WPLS
TTDM
VYIM
YWPY
EHLA
IPTV
YYRR
QGLR
YRCC
DIHT
SFAV
IYNN
NIGT
TEMS
DIDL
RKPR
TLPM
MNIS
SHAT
EQNR
VRFV
HDKE
VTSW
NDSK
RSNI
YVTG
QTLA
NYTY
ESAT
HTVG
IREG
RGPV
NTKR
IDPG
YNQT
SVIR
QHDL
EGTR
PISY
PNLH
RWID
FYQG
TCRC
WKVV
ATGC
FRGS
SLDQ
TKAA
PPFI
PAAN
ESSA
NMIG
PVDY
SIQR
CGMS
MDAS
QVIG
RGEA
QCEC
MSYC
VDNC
TLSL
PIET
QCRT
TGNM
PEPQ
CTGC
SRCL
QSTM
SAVN
GGYY
QNHY
DPSN
